{"source": "PubChem BioAssay AID485344", "about": "(National Center for Advancing Translational Sciences (NCATS), 2010)", "note": "Screen size: about 340,000 compounds; about 6,900 (2%) were called active. Rule as the data show it: active = inhibition above about 30%; inactive = below that, where a call was filed. Only a part is listed here, and it is no random draw. Where no call is shown, the source filed none.", "data": [{"biological_target": "D(2) dopamine receptor (Homo sapiens) (UniProt P14416)", "sequence (P14416 whole entry, looked up)": "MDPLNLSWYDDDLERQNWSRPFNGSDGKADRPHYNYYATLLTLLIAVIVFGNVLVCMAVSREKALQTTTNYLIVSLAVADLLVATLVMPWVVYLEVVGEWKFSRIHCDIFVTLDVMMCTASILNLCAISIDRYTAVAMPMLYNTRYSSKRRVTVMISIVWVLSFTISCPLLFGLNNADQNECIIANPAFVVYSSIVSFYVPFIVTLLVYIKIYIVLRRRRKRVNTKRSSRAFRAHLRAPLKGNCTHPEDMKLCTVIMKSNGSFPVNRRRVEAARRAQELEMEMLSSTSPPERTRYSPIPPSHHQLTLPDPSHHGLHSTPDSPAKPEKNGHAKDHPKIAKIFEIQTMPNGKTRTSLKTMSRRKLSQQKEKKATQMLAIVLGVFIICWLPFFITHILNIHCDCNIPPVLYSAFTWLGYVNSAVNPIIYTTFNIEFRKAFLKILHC", "test": "HTS Assay for Allosteric Antagonists of the Human D2 Dopamine Receptor: Primary Screen for Antagonists; also: 0% is about no effect", "conditions": "HEK293 TREx D2 cells, calcium flux, dopamine EC80; at 10 µM; stronger effect = higher value", "method_in_brief": "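Overnight-induced (tetracycline, 30 C) HEK293 T-REx cells carrying force-coupled D2 receive a no-wash calcium dye, then compound, then EC80 dopamine at 180 s; signals are read kinetically throughout.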", "values": [{"smiles": "CCCCN(CC)CCCNC(=O)c1nn(-c2ccc(OC)cc2)c(=O)c2c1c1ccccc1n2C", "inhibition": "15.8%"}, {"smiles": "O=C(Nc1ncc(Cc2ccccc2Cl)s1)c1ccc2c(c1)CC(c1ccccc1)OC2=O", "note": "(configuration not stated)", "inhibition": "-6.72%"}, {"smiles": "CNC(=O)C1CCC(Cn2c(=O)c3sccc3n(CC(=O)Nc3ccccc3)c2=O)CC1", "note": "(configuration not stated)", "inhibition": "5.44%"}, {"smiles": "Cc1ccc(NC(=O)c2nc(S(C)(=O)=O)ncc2N(Cc2ccco2)Cc2ccco2)cc1", "inhibition": "6.14%"}, {"smiles": "Cc1ccc(OCCSc2nc3ccccc3n2CCC(=O)O)cc1", "inhibition": "-23.4%"}, {"smiles": "Cc1ccc(S(=O)(=O)c2nnn3c2nc(NC2CCCCC2)c2sccc23)cc1C", "inhibition": "10.7%"}, {"smiles": "CN(Cc1ccccc1)c1nc2c(S(=O)(=O)c3ccccc3)nnn2c2ccsc12", "inhibition": "-2.42%"}, {"smiles": "Cc1c(C(=O)Nc2ccccc2F)sc2nc3n(c(=O)c12)CCC3", "inhibition": "18%"}, {"smiles": "COc1ccc(NC(=O)CN2C(=O)C(=O)c3ccccc32)c(OC)c1", "inhibition": "-6.86%"}, {"smiles": "Cc1cc(C)cc(OCC(=O)N(Cc2ccco2)Cc2ccccc2Cl)c1", "inhibition": "-1.16%"}, {"smiles": "COc1ccccc1C(=O)N1CCC(N2CCN(c3ccccc3OC)CC2)CC1", "inhibition": "active: 37.7%"}, {"smiles": "CCOc1ccccc1CNC(=O)CN1C(=O)c2cccnc2Oc2ccc(C)cc21", "inhibition": "13.3%"}, {"smiles": "O=C(Nc1ccc(Br)cc1)c1cc(S(=O)(=O)N2CCc3ccccc32)ccc1F", "inhibition": "-10.4%"}, {"smiles": "CCn1c(=O)c2sccc2n2c(CCCC(=O)Nc3ccc(Oc4ccccc4)cc3)nnc12", "inhibition": "-0.115%"}, {"smiles": "COc1ccc(OC)c(NC(=O)N2CCC3(CC2)Oc2ccccc2C(=O)N3Cc2ccccc2F)c1", "inhibition": "-1.15%"}, {"smiles": "CCCCN(C)C(=O)c1ccc2c(c1)NC(=O)C(CC(C)C)N2", "note": "(configuration not stated)", "inhibition": "22.5%"}, {"smiles": "COc1ccc(-c2noc(CC(=O)N(C)c3cc(Cl)c(OC)cc3OC)n2)cc1", "inhibition": "-6.91%"}, {"smiles": "CCN1C(=O)C2(c3ccccc31)c1c(oc3ccccc3c1=O)C(=O)N2CCOC", "note": "(configuration not stated)", "inhibition": "-6.53%"}, {"smiles": "COc1ccc(N2CCN(C(=O)c3cn(C)c4ccc(S(=O)(=O)N5CCOCC5)cc4c3=O)CC2)cc1", "inhibition": "2.77%"}, {"smiles": "Cc1cc(Nc2cccc(Cl)c2)nc2ccc(NC(=O)Cc3c(F)cccc3Cl)cc12", "inhibition": "7.46%"}, {"smiles": "CCC1Oc2ccccc2N(CC(=O)NCc2ccccc2)C1=O", "note": "(configuration not stated)", "inhibition": "-23.5%"}, {"smiles": "Cn1c(=O)c(=O)n(C)c2cc(N3CCCC3)c(NC(=O)c3ccccc3Cl)cc21", "inhibition": "5.54%"}, {"smiles": "COc1ccc2nc(N(Cc3cccnc3)C(=O)c3ccc(Cl)cc3)sc2c1", "inhibition": "-13.7%"}, {"smiles": "CCOc1ccccc1CNC(=O)CN1C(=O)c2cccnc2Oc2ccc(Cl)cc21", "inhibition": "-14.7%"}, {"smiles": "COc1ccc(S(=O)(=O)N2CCCCC2)cc1C(=O)NC1CCS(=O)(=O)C1", "note": "(configuration not stated)", "inhibition": "-0.47%"}, {"smiles": "O=C(Nc1ccccc1)c1ccc(Cl)c(S(=O)(=O)Nc2ccccc2)c1", "inhibition": "4.56%"}, {"smiles": "Cc1ccc(C(=O)c2cn(Cc3ccccc3)c3c(F)cc(F)cc3c2=O)cc1", "inhibition": "-4.34%"}, {"smiles": "CCS(=O)(=O)N1CCC2(CC1)OC(=O)C(C)=C2C(=O)NCc1ccc(OC)c(OC)c1", "inhibition": "3.9%"}, {"smiles": "Cc1cc(C)c(NC(=O)CN2C(=O)NC(CCc3ccccc3)C2=O)c(C)c1", "note": "(configuration not stated)", "inhibition": "active: 31.7%"}, {"smiles": "Cn1c(=O)c2c(-c3ccc(Cl)cc3)ccnc2n(C)c1=O", "inhibition": "-0.972%"}, {"smiles": "NC(=O)C1CCN(S(=O)(=O)c2cc3c4c(c2)CCN4C(=O)CC3)CC1", "inhibition": "active: 30.3%"}, {"smiles": "COc1ccc(OC)c(CCNc2nc3cc(OC)c(OC)cc3c3nc(-c4cccnc4)nn23)c1", "inhibition": "3.75%"}, {"smiles": "CCCN1CCc2c(sc(NC(=S)NC(=O)c3ccccc3)c2C#N)C1", "inhibition": "active: 77.6%"}, {"smiles": "CCc1c(C)sc(NC(=O)c2cc(-c3ccc(OC)c(OC)c3)on2)c1C#N", "inhibition": "-4.75%"}, {"smiles": "COc1ccc(CCNC(=O)c2ccc3[nH]c(C)c(C)c3c2)cc1OC", "inhibition": "-8.88%"}, {"smiles": "CCS(=O)(=O)N1CCc2cc(C(=O)Nc3cc(C)cc(C)c3)ccc21", "inhibition": "-1.23%"}, {"smiles": "COC(=O)c1ccc2c(c1)N(CC(=O)Nc1ccc(C)c(C)c1)C(=O)c1ccccc1S2", "inhibition": "20.6%"}, {"smiles": "Cc1csc(NC(=O)C2CCCN(S(=O)(=O)c3ccc(Br)s3)C2)n1", "note": "(configuration not stated)", "inhibition": "active: 38.2%"}, {"smiles": "Cc1ccc(C)c(N2CCN(C(=O)NCc3noc4ccccc34)CC2)c1", "inhibition": "-15.4%"}, {"smiles": "Cc1ccc2nc(Nc3cccc(C(F)(F)F)c3)c3nnnn3c2c1", "inhibition": "3.68%"}, {"smiles": "Cc1cc2oc(C(=O)Nc3sc4c(c3C(=O)NCC3CCCO3)CCCC4)cc(=O)c2cc1C", "note": "(configuration not stated)", "inhibition": "5.06%"}, {"smiles": "Cc1cccn2c(=O)c3cc(C(=O)NCCc4ccc(S(N)(=O)=O)cc4)n(C)c3nc12", "inhibition": "-7.59%"}, {"smiles": "CC(C)(C)c1ccc(OCC(=O)N(Cc2ccco2)Cc2ccccc2F)cc1", "inhibition": "2.81%"}, {"smiles": "COc1cc(OC)cc(-c2nnc(SCC(=O)N3CCC(C)CC3)o2)c1", "inhibition": "-3.95%"}, {"smiles": "CC(=O)c1ccc(NC(=O)Cn2c(-n3nc(C)cc3C)nc(C)cc2=O)cc1", "inhibition": "-9.67%"}, {"smiles": "COc1ccc(CCNC(=O)CCn2c(=O)c3ccccc3n(CC(=O)Nc3cccc(C)c3)c2=O)cc1OC", "inhibition": "19.1%"}, {"smiles": "Cc1ccc2c(c1)cc1c(=O)n(CC(=O)NCc3ccco3)nc(C)n12", "inhibition": "-5.4%"}]}]}
